This passage reports binding results from publication PMC6168700.

Protein sequences, listed by entry. Tags and fused reporters are not part of them.
UniProt Q03532: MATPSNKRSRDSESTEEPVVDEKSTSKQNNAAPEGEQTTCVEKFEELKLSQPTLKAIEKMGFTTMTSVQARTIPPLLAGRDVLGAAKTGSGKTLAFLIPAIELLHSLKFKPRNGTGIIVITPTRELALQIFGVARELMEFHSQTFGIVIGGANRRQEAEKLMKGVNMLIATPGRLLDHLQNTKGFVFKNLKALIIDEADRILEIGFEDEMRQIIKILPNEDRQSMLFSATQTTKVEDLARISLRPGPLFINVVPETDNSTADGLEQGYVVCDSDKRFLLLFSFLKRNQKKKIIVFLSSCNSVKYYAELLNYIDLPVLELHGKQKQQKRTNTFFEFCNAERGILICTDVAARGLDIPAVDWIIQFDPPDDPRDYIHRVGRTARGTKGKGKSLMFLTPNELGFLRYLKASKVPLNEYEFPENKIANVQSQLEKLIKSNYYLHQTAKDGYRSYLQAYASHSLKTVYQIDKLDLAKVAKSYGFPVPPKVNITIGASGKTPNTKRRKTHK

Sequences and labels used below:
T1: Full-length Kre33, His-tagged (UniProt P53914)
T1 sequence: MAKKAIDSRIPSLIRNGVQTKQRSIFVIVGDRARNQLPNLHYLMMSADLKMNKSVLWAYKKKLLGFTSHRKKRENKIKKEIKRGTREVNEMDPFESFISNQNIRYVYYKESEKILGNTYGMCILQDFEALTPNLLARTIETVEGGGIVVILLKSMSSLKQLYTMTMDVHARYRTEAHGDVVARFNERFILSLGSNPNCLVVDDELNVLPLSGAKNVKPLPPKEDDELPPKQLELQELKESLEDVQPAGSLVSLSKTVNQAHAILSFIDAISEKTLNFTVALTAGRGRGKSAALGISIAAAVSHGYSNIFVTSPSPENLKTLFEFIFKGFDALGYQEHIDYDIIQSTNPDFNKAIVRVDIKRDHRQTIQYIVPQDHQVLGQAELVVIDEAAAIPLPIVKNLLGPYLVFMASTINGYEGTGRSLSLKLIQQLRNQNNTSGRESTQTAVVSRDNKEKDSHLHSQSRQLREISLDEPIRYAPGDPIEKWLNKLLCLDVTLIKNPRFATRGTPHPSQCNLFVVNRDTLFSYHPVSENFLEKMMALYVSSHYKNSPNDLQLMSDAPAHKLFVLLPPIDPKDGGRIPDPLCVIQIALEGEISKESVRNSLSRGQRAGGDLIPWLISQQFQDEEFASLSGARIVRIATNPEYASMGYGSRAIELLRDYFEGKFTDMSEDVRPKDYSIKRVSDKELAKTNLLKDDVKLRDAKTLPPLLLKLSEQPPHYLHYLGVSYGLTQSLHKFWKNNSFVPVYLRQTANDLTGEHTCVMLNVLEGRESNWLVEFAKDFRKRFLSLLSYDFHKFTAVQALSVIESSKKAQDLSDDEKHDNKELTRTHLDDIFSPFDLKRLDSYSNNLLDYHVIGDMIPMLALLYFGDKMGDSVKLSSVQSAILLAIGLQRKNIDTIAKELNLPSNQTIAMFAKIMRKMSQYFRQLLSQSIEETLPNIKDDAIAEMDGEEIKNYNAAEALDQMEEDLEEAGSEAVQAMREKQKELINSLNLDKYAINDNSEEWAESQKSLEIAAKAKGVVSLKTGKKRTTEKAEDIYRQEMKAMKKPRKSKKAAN

T2: Full-length Utp22, His-tagged (UniProt P53254)
T2 sequence: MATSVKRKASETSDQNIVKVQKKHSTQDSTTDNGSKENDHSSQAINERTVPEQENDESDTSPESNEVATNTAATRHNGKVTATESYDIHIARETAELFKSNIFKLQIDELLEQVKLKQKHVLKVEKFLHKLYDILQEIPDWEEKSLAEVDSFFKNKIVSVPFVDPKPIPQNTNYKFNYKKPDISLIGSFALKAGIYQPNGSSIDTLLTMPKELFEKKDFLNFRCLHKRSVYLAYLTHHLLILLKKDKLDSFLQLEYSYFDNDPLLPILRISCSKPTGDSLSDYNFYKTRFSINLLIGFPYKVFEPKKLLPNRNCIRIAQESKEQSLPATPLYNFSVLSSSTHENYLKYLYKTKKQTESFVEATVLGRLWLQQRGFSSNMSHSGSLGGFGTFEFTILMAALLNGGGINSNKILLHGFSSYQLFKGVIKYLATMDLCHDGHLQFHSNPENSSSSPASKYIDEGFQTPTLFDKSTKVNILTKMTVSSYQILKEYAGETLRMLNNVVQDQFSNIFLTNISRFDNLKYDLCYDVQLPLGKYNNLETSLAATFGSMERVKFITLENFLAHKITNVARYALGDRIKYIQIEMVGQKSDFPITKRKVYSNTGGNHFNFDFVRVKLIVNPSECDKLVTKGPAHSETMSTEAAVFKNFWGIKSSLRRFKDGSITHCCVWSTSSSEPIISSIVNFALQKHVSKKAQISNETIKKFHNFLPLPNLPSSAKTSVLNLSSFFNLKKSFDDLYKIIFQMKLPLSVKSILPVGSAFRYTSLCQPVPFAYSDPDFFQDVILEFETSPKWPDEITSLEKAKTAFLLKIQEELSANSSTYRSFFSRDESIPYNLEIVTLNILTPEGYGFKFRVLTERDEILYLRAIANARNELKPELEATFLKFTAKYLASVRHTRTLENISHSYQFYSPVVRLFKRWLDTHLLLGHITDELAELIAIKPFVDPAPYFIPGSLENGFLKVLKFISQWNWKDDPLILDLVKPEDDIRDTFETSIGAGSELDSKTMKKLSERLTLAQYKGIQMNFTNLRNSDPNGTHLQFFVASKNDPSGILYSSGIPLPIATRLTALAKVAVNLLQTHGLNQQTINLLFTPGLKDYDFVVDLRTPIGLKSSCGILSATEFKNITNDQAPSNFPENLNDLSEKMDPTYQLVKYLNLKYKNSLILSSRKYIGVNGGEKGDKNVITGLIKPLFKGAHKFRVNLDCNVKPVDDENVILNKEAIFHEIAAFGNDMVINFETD

T3: Full-length Rok1, His-tagged (UniProt P45818)
T3 sequence: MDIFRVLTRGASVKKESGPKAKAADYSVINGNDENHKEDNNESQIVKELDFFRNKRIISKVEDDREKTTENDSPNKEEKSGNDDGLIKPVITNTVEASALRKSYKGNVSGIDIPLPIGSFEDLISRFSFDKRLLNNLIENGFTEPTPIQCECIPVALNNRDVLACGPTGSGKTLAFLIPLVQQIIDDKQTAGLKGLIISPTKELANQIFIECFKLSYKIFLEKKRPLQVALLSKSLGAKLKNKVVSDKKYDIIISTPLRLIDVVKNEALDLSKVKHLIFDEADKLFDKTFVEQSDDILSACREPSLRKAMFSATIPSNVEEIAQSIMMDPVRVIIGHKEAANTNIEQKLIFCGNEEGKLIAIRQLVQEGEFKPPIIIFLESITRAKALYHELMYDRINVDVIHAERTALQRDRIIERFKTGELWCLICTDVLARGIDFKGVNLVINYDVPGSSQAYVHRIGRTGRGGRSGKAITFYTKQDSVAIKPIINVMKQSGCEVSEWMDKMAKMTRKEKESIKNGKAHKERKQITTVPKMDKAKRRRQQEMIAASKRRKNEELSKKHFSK

B1: Rrp5 (1083–1343), the last 3 S1 domains only (domain or fragment, UniProt Q05022 1083-1343)
chain: STIKVGDELPGRVLKIAEKYVLLDLGNKVTGISFITDALNDFSLTLKEAFEDKINNVIPTTVLSVDEQNKKIELSLRPATAKTRSIKSHEDLKQGEIVDGIVKNVNDKGIFVYLSRKVEAFVPVSKLSDSYLKEWKKFYKPMQYVLGKVVTCDEDSRISLTLRESEINGDLKVLKTYSDIKAGDVFEGTIKSVTDFGVFVKLDNTVNVTGLAHITEIADKKPEDLSALFGVGDRVKAIVLKTNPEKKQISLSLKASHFSKE
B2: Rrp5 (1083–1729), the 3 last S1 domains and the TPR region (domain or fragment, UniProt Q05022 1083-1729)
chain: STIKVGDELPGRVLKIAEKYVLLDLGNKVTGISFITDALNDFSLTLKEAFEDKINNVIPTTVLSVDEQNKKIELSLRPATAKTRSIKSHEDLKQGEIVDGIVKNVNDKGIFVYLSRKVEAFVPVSKLSDSYLKEWKKFYKPMQYVLGKVVTCDEDSRISLTLRESEINGDLKVLKTYSDIKAGDVFEGTIKSVTDFGVFVKLDNTVNVTGLAHITEIADKKPEDLSALFGVGDRVKAIVLKTNPEKKQISLSLKASHFSKEAELASTTTTTTTVDQLEKEDEDEVMADAGFNDSDSESDIGDQNTEVADRKPETSSDGLSLSAGFDWTASILDQAQEEEESDQDQEDFTENKKHKHKRRKENVVQDKTIDINTRAPESVADFERLLIGNPNSSVVWMNYMAFQLQLSEIEKARELAERALKTINFREEAEKLNIWIAMLNLENTFGTEETLEEVFSRACQYMDSYTIHTKLLGIYEISEKFDKAAELFKATAKKFGGEKVSIWVSWGDFLISHNEEQEARTILGNALKALPKRNHIEVVRKFAQLEFAKGDPERGRSLFEGLVADAPKRIDLWNVYVDQEVKAKDKKKVEDLFERIITKKITRKQAKFFFNKWLQFEESEGDEKTIEYVKAKATEYVASHESQKADE
B3: Rrp5 (1400–1729), the TPR region alone (domain or fragment, UniProt Q05022 1400-1729)
chain: GLSLSAGFDWTASILDQAQEEEESDQDQEDFTENKKHKHKRRKENVVQDKTIDINTRAPESVADFERLLIGNPNSSVVWMNYMAFQLQLSEIEKARELAERALKTINFREEAEKLNIWIAMLNLENTFGTEETLEEVFSRACQYMDSYTIHTKLLGIYEISEKFDKAAELFKATAKKFGGEKVSIWVSWGDFLISHNEEQEARTILGNALKALPKRNHIEVVRKFAQLEFAKGDPERGRSLFEGLVADAPKRIDLWNVYVDQEVKAKDKKKVEDLFERIITKKITRKQAKFFFNKWLQFEESEGDEKTIEYVKAKATEYVASHESQKADE

Results are given in words; binding and its absence hold for the method and conditions named. Some binding calls cover weakened binding; strength is not graded here. For part of these data: Tags and fused reporters may be left off the sequences shown.

One test has as its target Full-length Has1, His-tagged (UniProt Q03532). Briefly: pull-down; His-tagged Kre33, Has1 or Utp22 held on Ni-NTA beads (2–4 μg), mixed with 2–4 μg of a purified Rrp5 construct in ~100 μL, 30 min on ice, 4 washes with wash buffer; SDS/PAGE, Coomassie Blue; both purified.
B1: the binding result was “no binding (tested: 2–4 μg in ~ 100 μL)”.

In the case of B2, the binding entry is listed as “no binding (tested: 2–4 μg in ~ 100 μL)”.

With B3, the binding entry is recorded as “no binding (tested: 2–4 μg in ~ 100 μL)”.

Another test deals with T1, Full-length Kre33, His-tagged. Described as above.
Regarding B1, the binding entry is “no binding (tested: 2–4 μg in ~ 100 μL)”.

On to B2, for which the binding result is “no binding (tested: 2–4 μg in ~ 100 μL)”.

As to B3, the binding entry is “no binding (tested: 2–4 μg in ~ 100 μL)”.

Another test has as its target T2, Full-length Utp22, His-tagged. The description is as above.
Turning to B1, the binding result is “no binding (tested: 2–4 μg in ~ 100 μL)”.

Regarding B2, the binding entry is on record as “no binding (tested: 2–4 μg in ~ 100 μL)”.

Turning to B3, the binding entry is “no binding (tested: 2–4 μg in ~ 100 μL)”.

The target of the next test is T3, Full-length Rok1, His-tagged. Briefly: pull-down; His-tagged Rok1 held on Ni-NTA beads (2–4 μg), mixed with 2–4 μg of a purified Rrp5 construct in ~100 μL, in the presence of 2 mM ATP, 30 min on ice, 4 washes with wash buffer; SDS/PAGE, Coomassie Blue; both purified.
Take B1: the binding result was “no binding (tested: 2–4 μg in ~ 100 μL)”.

Regarding B2, the binding result is given as “no binding (tested: 2–4 μg in ~ 100 μL)”.

In the case of B3, the binding entry is “binds weakly”.
